Reference: article PMC4336329 (PLoS ONE, 2015)
Screen size: about 310,000 compounds; about 14,000 (4.5%) showed an effect of 50% or more. The effect is printed as a negative number. The list shows a part of the results.

The compounds below were run against human ether-à-go-go-related gene (hERG) potassium channel (human, UniProt Q12809) (assay: primary screen, population patch clamp on CHO cells stably expressing hERG).
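Also: peak tail current of the secondary pulse compared with the same well before compound.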

human ether-à-go-go-related gene (hERG) potassium channel, sequence (Q12809 whole entry, looked up): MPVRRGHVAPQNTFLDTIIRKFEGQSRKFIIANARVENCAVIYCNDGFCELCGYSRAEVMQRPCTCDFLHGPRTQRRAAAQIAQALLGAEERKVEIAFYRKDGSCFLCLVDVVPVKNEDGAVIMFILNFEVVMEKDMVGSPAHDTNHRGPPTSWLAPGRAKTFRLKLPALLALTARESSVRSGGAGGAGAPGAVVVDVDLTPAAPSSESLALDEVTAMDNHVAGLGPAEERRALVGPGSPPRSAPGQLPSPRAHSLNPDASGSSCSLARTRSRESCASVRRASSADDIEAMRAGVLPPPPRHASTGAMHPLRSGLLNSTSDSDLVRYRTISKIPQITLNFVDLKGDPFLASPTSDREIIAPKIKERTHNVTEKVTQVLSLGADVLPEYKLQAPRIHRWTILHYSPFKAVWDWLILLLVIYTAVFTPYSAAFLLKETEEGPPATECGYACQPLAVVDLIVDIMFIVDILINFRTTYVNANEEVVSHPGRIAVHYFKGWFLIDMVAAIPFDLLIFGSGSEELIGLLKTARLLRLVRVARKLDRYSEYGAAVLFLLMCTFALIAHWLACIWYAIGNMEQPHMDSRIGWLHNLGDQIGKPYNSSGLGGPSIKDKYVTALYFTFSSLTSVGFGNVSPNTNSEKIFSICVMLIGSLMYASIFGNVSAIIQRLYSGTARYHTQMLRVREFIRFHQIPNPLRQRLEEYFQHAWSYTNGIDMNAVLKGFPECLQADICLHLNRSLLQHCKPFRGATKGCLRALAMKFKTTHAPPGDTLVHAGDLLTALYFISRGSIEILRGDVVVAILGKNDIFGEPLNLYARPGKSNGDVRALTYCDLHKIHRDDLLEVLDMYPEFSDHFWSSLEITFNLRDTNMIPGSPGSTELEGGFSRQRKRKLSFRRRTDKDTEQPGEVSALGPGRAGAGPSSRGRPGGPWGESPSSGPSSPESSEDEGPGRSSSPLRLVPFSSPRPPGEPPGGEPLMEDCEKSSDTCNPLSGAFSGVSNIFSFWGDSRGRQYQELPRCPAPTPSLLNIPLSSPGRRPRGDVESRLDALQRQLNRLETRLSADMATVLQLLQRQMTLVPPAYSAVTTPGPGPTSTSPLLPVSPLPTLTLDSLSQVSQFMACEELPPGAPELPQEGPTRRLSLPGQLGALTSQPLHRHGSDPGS

Row | SMILES | hERG current change (%, negative = inhibition) at 10uM
1 | Cn1c(SCC(=O)NCc2ccco2)nnc1C1CCCC1 | 7.74%
2 | CC1CN(C(=S)Nc2cccc(Cl)c2)CC(C)O1 (stereo not shown) | 14.1%
3 | COc1ccc(/C=N/NS(=O)(=O)c2ccc(F)cc2)cc1CN1CCSCC1 | -32%
4 | Cc1ccc(C)c(NC(=O)CCNS(=O)(=O)c2ccc3[nH]c(=O)oc3c2)c1 | 11.4%
5 | O=C(c1ccc(C(F)(F)F)cc1)N1CCC(=O)N(C(COCc2ccccc2)Cc2ccccc2)CC1 (stereo not shown) | -23.2%
6 | Cc1cccc(C(=O)Nc2ccc(O)cc2C(=O)O)c1 | -7.43%
7 | CC1CCCCN1S(=O)(=O)c1ccc(C(=O)Nc2nnc(-c3ccccn3)o2)cc1 (stereo not shown) | 19.5%
8 | Cc1cc(=O)c2ccc(Cl)cc2[nH]1 | 11.3%
9 | Br.CC(C)(C)C(=O)CN1C2=NCCN2c2ccccc21 | -32.1%
10 | CN(C)C1=NC[C@H](Cc2ccccc2)N1CC1CCC(C(C)(C)C)CC1 (stereo partly shown) | -31.4%
11 | CN(C)c1ccc(/C=C(\NC(=O)c2ccccc2)C(=O)NCCCN2CCOCC2)cc1 | -10.4%
12 | O=C1OC(Nc2cc(Br)cc3cccnc23)c2ccccc21 (stereo not shown) | -9.92%
13 | Cc1cc(=O)n2c(ccc3ccccc32)c1C#N | -14.4%
14 | FC(F)(F)c1cccc(NC(=S)NC2CCCC2)c1 | 8.3%
15 | CCCCCCCCCCCC1=C(O)C(=O)C=C(O)C1=O | 18.3%
16 | O=C(NCCCN1CCCC1=O)c1cc(-c2cccnc2)nc2ccc(Cl)cc12 | -26.8%
17 | CSc1nnc(NC(=O)C23CC4CC(CC(C4)C2)C3)s1 | 10.2%
18 | Cc1ccc(C(=O)NC(=S)N2CCCCCC2)cc1 | -20%
19 | Cc1ccc(C(=O)N/C(=C/c2ccc(Cl)cc2)C(=O)NCC2CCCO2)cc1 (stereo not shown) | -48.7%
20 | CCC(C)NC(=O)CSc1nc2ccsc2c(=O)n1NC(=O)c1ccccc1 (stereo not shown) | 4.75%

Row | SMILES | hERG current change (%, negative = inhibition) at 10uM
21 | CCCN1C2CCCC1CC(NC(=S)Nc1cc(C)cc(C)c1)C2 (stereo not shown) | -83.7%
22 | O=C(CSC1=NCCS1)NC1CCCC1 | 8.6%
23 | CC(C)n1nc(C(=O)Nc2nnc(C3CC3)s2)c2ccccc2c1=O | 11.8%
24 | O=C(COC(=O)c1ccc(Br)o1)Nc1nc2c(F)c(F)c(F)cc2s1 | 4.26%
25 | CC(C)CNC(=O)CSc1nnc(-c2ccc(Cl)cc2)n1N | -2.99%
26 | CCOCC(=O)Nc1c(C)n(C)n(-c2ccccc2)c1=O | 11%
27 | O=C(CC1C(=O)NCCN1C(=S)Nc1ccccc1)Nc1ccc2c(c1)OCCO2 (stereo not shown) | -15.2%
28 | COc1ccc(C(C(=O)NC2CCCC2)N(Cc2ccccc2)C(=O)c2snc(C(N)=O)c2N)cc1OC (stereo not shown) | -1.93%
29 | CCCn1c2ccc(/C(C)=N\O)cc2c2cc(/C(C)=N/O)ccc21 | 11.4%
30 | O=C(Nc1ccccc1)Nc1nc(-c2ccccc2)cs1 | 13.1%
31 | CCOc1ccc(C(=O)Nc2nnc(S(=O)(=O)N(C)Cc3ccco3)s2)cc1 | 9.14%
32 | Cn1c(=O)[nH]c(=O)c2c1nc(N1CCN(CCO)CC1)n2CCSc1nc2ccccc2s1 | -2.38%
33 | CC(C)N1C(=O)C(=O)N(CC(=O)N2CCc3ccccc32)C1=O | -1.41%
34 | O=C(NCc1ccc(Cl)cc1)c1cc(-c2ccco2)on1 | 7.82%
35 | COCCOC(=O)C1=C(N)OC2=C(C(=O)CC(C)(C)C2)C1c1ccncc1 (stereo not shown) | 4.08%
36 | Cc1cc(OCc2cc(C(=O)NC(C)c3c(C)nn(C)c3C)no2)cc(C)c1Cl (stereo not shown) | -32.2%
37 | CC(C)(C)/C(COc1ccccc1[N+](=O)[O-])=N/O | -31.9%
38 | CCC(=O)N(c1nnc(SCC(=O)NN2C(=O)NC3(CCC(C)CC3)C2=O)s1)C1CC1 (stereo not shown) | -5.47%
39 | COc1ccccc1NC(=O)NN1CCCCC1 | -18.6%
40 | Cc1cccc(NC(=O)c2ccc(-n3cncn3)c([N+](=O)[O-])c2)c1 | -35.7%

Row | SMILES | hERG current change (%, negative = inhibition) at 10uM
41 | O=C(Nc1ccc2oc(-c3ccccc3F)nc2c1)c1ccccc1F | -0.55%
42 | Cc1c(CN2CCC(n3nccc3NC(=O)c3cccc(F)c3)CC2)cnn1C | 9%
43 | COc1ccc(-c2nn(-c3ccccc3)cc2/C=C2/SC(=S)N(CCC(=O)O)C2=O)cc1 | 10.2%
44 | CCCc1cc(=O)oc2cc(OC(C)C(=O)NCC3CCC(C(=O)O)CC3)ccc12 (stereo not shown) | 22.3%
45 | Cc1ccc(N2C(=O)N(CC(=O)Nc3ccccc3C)C(=O)C2C)cc1 (stereo not shown) | -2.59%
46 | O=C(NCc1ccc(F)cc1)c1noc2c1CCCC2 | -10.5%
47 | Cc1ccc(S(=O)(=O)N2CCCN(S(=O)(=O)c3ccc(C(F)(F)F)cc3)CC2)cc1 | 1.34%
48 | Cc1nsc2c1ccc1ccccc12 | 11.1%
49 | Cc1snc(SCc2c(F)cccc2Cl)c1C#N | 12.2%
50 | COc1ccc([C@H]2CC(=O)C=C(c3ccc(OC(F)(F)F)cc3)C2)cc1OC | -9.6%
51 | CC1CN(C(c2cccs2)c2sc3ncnn3c2O)CC(C)O1 (stereo not shown) | 19.5%
52 | COc1cccc(/C(O)=C2/C(=O)C(=O)N(CCN(C)C)C2c2ccccn2)c1 (stereo not shown) | -13.8%
53 | CCOC(=O)CCCNC(=O)CCNC(=O)c1ccc(OC)cc1 | -2.74%
54 | CC(CNC(=O)CC(C)(C)C)NC(=O)CC(C)(C)C (stereo not shown) | 11%
55 | CC1CCCN(C(=O)CCNC(=O)Cn2cnc3ccccc3c2=O)C1 (stereo not shown) | 18.4%
56 | CCCCC(=O)NCc1ccc(Cl)cc1 | 0.991%
57 | COc1ccc(-c2c(-c3cc(OC)c(OC)c(OC)c3)noc2C)cn1 | -19.6%
58 | Cc1ccc(SCC(=O)OCc2csc(CC(=O)Nc3ccccc3C)n2)cc1C | -4.65%
